# According to PubChem BioAssay AID720708 (National Center for Advancing Translational Sciences (NCATS), 2013):
# “And” between values parts separate entries of the source, which are not always exact repeats. Equal values may be shown once. Screen size: about 360,000 compounds; about 660 (0.18%) were called active. The shares of active, inactive and inconclusive entries below differ from those in the screen. Calls follow the shape of the dose curve; as a rule, active = well fitted inhibition curve with a large enough effect; inconclusive = small, poorly fitted or top-dose-only effect; inactive = no such curve, though single readings can be large or run the other way. A potency beside an inconclusive call is a rough fit, not a confirmed value.
# Target: Rap guanine nucleotide exchange factor 4 (Homo sapiens) (UniProt Q8WZA2)
# Experiment: qHTS for Antagonist of cAMP-regulated guanine nucleotide exchange factor 2 (EPAC2): primary screen; also: nearly all actives have a fitted effect of over 45% in size
# Conditions: EPAC2 GEF exchange of Rap1B-BODIPY-GDP, fluorescence; activity, negative = inhibition: at 114 µM (top of the series) unless noted
# % is scaled to controls: 0 for no effect and ±100 for the full control effect; potency is read from the fitted curve at half-maximal effect; tags tell the direction and shape of the fitted curve.
# Sequence of UniProt Q8WZA2 (Q8WZA2 whole entry, looked up): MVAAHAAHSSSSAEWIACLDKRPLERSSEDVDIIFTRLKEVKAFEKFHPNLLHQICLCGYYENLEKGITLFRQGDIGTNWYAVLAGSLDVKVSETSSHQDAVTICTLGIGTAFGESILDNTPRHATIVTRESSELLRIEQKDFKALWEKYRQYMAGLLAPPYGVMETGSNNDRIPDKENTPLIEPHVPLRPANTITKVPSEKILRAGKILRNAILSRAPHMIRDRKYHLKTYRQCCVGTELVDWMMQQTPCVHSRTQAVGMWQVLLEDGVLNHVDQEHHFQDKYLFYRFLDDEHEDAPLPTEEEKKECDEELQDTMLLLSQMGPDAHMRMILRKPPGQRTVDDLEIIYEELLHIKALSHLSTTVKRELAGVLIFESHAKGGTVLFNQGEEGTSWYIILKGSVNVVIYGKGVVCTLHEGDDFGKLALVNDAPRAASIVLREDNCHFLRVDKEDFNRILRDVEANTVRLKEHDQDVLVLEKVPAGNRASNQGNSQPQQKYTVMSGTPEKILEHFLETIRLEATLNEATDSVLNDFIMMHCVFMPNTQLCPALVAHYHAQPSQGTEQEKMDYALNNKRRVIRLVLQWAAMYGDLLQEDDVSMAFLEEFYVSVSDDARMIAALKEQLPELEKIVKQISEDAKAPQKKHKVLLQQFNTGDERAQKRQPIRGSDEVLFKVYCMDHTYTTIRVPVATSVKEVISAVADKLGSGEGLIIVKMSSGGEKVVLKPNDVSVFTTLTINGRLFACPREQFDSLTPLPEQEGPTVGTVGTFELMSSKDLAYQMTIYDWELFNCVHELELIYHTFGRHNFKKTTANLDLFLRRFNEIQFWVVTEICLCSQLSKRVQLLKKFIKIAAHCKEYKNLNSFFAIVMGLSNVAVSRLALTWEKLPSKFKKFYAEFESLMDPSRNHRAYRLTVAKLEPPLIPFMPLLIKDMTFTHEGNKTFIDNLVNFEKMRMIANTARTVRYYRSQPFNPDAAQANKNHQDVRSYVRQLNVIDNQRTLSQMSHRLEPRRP
Compound,Potency,"activity, negative = inhibition"
Cc1cccc(OC(=O)Nc2ccc(C(=O)O)c(O)c2)c1,"inconclusive: 25.1 µM [inhibitor, full curve]",
COC(=O)c1c(NC(=O)COC(=O)c2ccccc2O)sc2c1CCCCC2,"inconclusive: 25.1 µM [inhibitor, full curve, poor fit]",
CCOC(=O)c1c(-c2ccc(-c3ccccc3)cc2)csc1NC(=O)CCC(=O)O,"inconclusive: 50.1 µM [inhibitor, partial curve]",
CCOC(=O)C1=C(C)C(c2cccc(Oc3ccccc3)c2)NC(=S)N1 (centres undefined),"inconclusive: 50.1 µM [inhibitor, partial curve]",
O=C(O)c1ccc(N/N=C/c2ccc(-c3ccc(Cl)cc3Cl)o2)cc1,"inconclusive: 11.2 µM [inhibitor, partial curve, poor fit]",
C=C1SC(Nc2c(C)cccc2C)=NC12CCCCC2,"inconclusive: 56.2 µM [inhibitor, partial curve]",
CCC1=NN(C(=O)c2ccc(Br)cc2)C(O)(c2ccccc2)C1 (centres undefined),,inactive: -7.29%
CN(C)CCNC(=O)c1ccc2c(=O)n(Cc3ccc(Cl)cc3)c(=S)[nH]c2c1,"inconclusive: 89.1 µM [inhibitor, partial curve]",
Cc1ccc(CN2C(=O)CSC2c2ccccc2F)cc1 (centres undefined),"inconclusive: 17.8 µM [inhibitor, full curve]",
Cc1nn(C(C)C(=O)N2CCc3ccccc3C2)c(=O)c2cc3occc3n12 (centres undefined),"inconclusive: 12.6 µM [inhibitor, partial curve]",
CC(C)(C)n1nnnc1C(c1cccs1)N(Cc1ccc(Cl)cc1)CC1CCCO1 (centres undefined),,inactive: -10.7%
O=c1cc(CN2CCc3ccccc32)c2ccc(O)cc2o1,"inconclusive: 100 µM [inhibitor, partial curve]",
COc1ccc(/C=C(/C(=O)NCc2ccccc2)c2ccccc2)cc1,"inconclusive: 25.1 µM [inhibitor, full curve, poor fit]",
Cc1ccc(N=N/C(=C\O)C(=O)c2ccncc2)cc1,,inactive: 5.99%
CCOC(=O)c1sc(-n2[nH]c(C)cc2=O)nc1C,"inconclusive: 17.8 µM [inhibitor, single point]",
CC1C(=O)CC(c2ccccc2)N(C)C1c1ccccc1 (centres undefined),"inconclusive: 50.1 µM [inhibitor, partial curve]",
CN1CCc2c(n(CC(O)CNCc3ccccc3)c3ccccc23)C1=O (centres undefined),,inactive: 3.63%
Cc1cc(C(=O)CSc2nc(N)cc(N)n2)c(C)n1C1CC1,,inactive: 6.96%
Cc1ccc(S(=O)(=O)n2nccc2-c2c(-c3ccccc3)noc2C)cc1,"inconclusive: 20 µM [inhibitor, partial curve]",
O=c1[nH]c([N+](=O)[O-])nn1C(c1ccccc1)c1ccccc1,"inconclusive: 25.1 µM [inhibitor, partial curve]",
CCOc1ccc(/C=C/C(=O)c2c(O)cc(C)oc2=O)cc1,,inactive: 1.53%
O=S(=O)(Nc1ccccc1N1CCCCC1)c1ccc(F)cc1F,"inconclusive: 39.8 µM [inhibitor, partial curve]",

Compound,Potency,"activity, negative = inhibition"
Cn1ccnc1C(O)c1cccc(OCc2ccccc2)c1 (centres undefined),"inconclusive: 39.8 µM [inhibitor, partial curve]",
CCc1c(C)sc(NC(=S)N2CC(C)OC(C)C2)c1C(=O)OC (centres undefined),"inconclusive: 11.2 µM [inhibitor, full curve]",
CCOC(=O)COc1ccc(C(=O)Nc2cccc(Cl)c2C)cc1,"inconclusive: 89.1 µM [inhibitor, single point]",
Cc1cccc(C)c1N(CC(=O)Nc1cc(Cl)ccc1Oc1ccccc1)S(C)(=O)=O,,inactive: -2.83%
COC(=O)C1=C(C)N(C)C(=S)NC1c1ccc(OC)cc1OC (centres undefined),"inconclusive: 39.8 µM [inhibitor, partial curve]",
OC[C@@H]1[C@@H](c2ccccc2)C(c2ccccc2)=NN1c1ccccc1,"inconclusive: 50.1 µM [inhibitor, partial curve]",
Cc1ccc(-c2csc(=S)[nH]2)cc1,,inactive: 1.14%
COc1ccc(C=C2SC(=S)NC2=O)c(OC)c1OC,"inconclusive: 56.2 µM [inhibitor, partial curve]",
Cc1ccc(NC(=O)CN2C(=O)S/C(=C\c3cc(C)n(C)c3C)C2=O)cc1,,inactive: 8.64%
O=C(c1ccccc1Br)N(Cc1ccccc1)c1ccccc1,"inconclusive: 31.6 µM [inhibitor, full curve]",
Oc1c(Br)cc(Br)cc1/C=N/c1nc2c(s1)CCCC2,"inconclusive: 50.1 µM [inhibitor, partial curve]",
Cc1ccc(N2C(=O)C(F)(F)C2c2ccccc2)cc1 (centres undefined),"inconclusive: 39.8 µM [inhibitor, partial curve]",
O=S1(=O)N=C(SCCO)c2ccccc21,,inactive: -4.38%
Cc1ccc(CN2C(=O)C(C)Oc3ccccc32)cc1 (centres undefined),"inconclusive: 39.8 µM [inhibitor, partial curve]",
N#C/C(=C\c1ccc(Cl)c([N+](=O)[O-])c1)c1ccccn1,,inactive: -4.09%
CCC1Nc2ncnc(N3CCCCC3)c2N(Cc2ccc(Cl)cc2)C1=O (centres undefined),"inconclusive: 56.2 µM [inhibitor, partial curve] and inconclusive: 63.1 µM [inhibitor, partial curve, poor fit]",
O=C(CC(n1cncn1)C(Cl)(Cl)Cl)c1ccc([N+](=O)[O-])cc1 (centres undefined),"inconclusive: 31.6 µM [inhibitor, single point]",
O=[N+]([O-])c1cccnc1Oc1ccc(C2SCCS2)cc1,,inactive: 2.11%
C#CCCC(=O)c1ccccc1/C=[N+](\[O-])c1ccccc1,"inconclusive: 50.1 µM [inhibitor, partial curve]",
CC(C)C[C@H]1CNC(=S)N1C[C@H]1CCCN1C[C@H](CC(C)C)N1C[C@H](Cc2ccc(O)cc2)N(CC2CCCCCC2)C1=S,"inconclusive: 25.1 µM [inhibitor, single point]",
COc1ccccc1CNc1cc(-c2ccccc2)ccc1OC,"inconclusive: 56.2 µM [inhibitor, partial curve]",
Cc1cc(OC(C)C(=O)N(Cc2cccs2)C2CCS(=O)(=O)C2)ccc1Cl (centres undefined),"inconclusive: 79.4 µM [inhibitor, partial curve]",
